Data published in the supplement of paper PMC3334620.
Over roughly 33,000 sequences, “E-score (-0.5 to 0.5)” has its median near -0.021; the highest 2% begin near 0.32. The list shows a part of the results.

target: T1, Zap1 (UniProt P47043); experiment: PBM E-score (8-mer binding enrichment) (E-score (-0.5 to 0.5)); higher = stronger / more preferred TF binding; most listed sequences are background and not binding sites; settings: protein concentration: 200 nM; construct: GST-full length
T1 sequence: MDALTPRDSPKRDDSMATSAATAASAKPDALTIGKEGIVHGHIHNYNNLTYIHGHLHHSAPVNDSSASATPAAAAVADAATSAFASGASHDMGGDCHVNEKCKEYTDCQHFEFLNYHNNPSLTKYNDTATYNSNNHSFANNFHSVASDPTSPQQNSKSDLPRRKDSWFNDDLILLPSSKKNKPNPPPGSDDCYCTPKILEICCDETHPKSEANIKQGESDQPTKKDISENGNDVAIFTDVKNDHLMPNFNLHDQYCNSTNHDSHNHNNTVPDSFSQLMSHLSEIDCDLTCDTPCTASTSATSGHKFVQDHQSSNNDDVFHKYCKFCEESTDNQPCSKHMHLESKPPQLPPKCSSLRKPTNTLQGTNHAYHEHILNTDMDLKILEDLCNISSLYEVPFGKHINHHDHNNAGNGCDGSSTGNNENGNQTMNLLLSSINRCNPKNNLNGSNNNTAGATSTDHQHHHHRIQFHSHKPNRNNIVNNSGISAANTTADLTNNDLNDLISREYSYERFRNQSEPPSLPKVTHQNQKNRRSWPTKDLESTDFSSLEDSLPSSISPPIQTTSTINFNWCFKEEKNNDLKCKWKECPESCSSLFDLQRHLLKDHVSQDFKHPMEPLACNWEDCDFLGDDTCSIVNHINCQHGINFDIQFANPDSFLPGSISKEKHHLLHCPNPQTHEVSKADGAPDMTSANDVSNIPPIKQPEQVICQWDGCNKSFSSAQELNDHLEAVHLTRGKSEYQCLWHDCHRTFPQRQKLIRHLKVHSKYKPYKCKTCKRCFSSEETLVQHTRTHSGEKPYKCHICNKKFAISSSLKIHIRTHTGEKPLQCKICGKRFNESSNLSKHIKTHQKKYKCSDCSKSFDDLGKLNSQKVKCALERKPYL
Method in brief: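 Using PURExpress in vitro transcription/translation, GST-tagged yeast transcription factors were made in full-length or DNA-binding-domain form. These were applied at about 100-200 nM to double-stranded universal all-10-mer Agilent arrays, and bound protein was detected with fluorescent anti-GST. Scans were normalised with masliner before the Universal PBM Analysis Suite assigned E-scores to ungapped eight-base words pooled with their reverse complements.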

Row | Sequence | PBM E-score
1 | AAGCCGAA | -0.0133
2 | ACTGACTA | -0.152
3 | ACCTCTAT | 0.293
4 | CCGTACCC | 0.275
5 | CGCCGCCA | -0.0727
6 | AAAACCTA | 0.279
7 | AAGTAAAA | 0.0649
8 | AATCCAAG | 0.096
9 | TACCTATA | 0.337
10 | TCCGGACA | 0.00238
11 | GCTCGTAA | 0.12
12 | ACTCGGCA | -0.191
13 | GCCACTAA | 0.112
14 | GCACACAA | -0.00415
15 | AAGTGTCA | -0.175
16 | AAGTGAAC | 0.149
17 | AGGGAGAT | -0.267
18 | CAAATGTG | 0.18
19 | GTGCTCCA | -0.0916
20 | ACAAAAGC | -0.0458
21 | ATGATACC | 0.144
22 | AACGCTGC | -0.0724
23 | AACCACAC | 0.268
24 | TATCAATA | 0.188
25 | AGTAAAAT | 0.198

Row | Sequence | PBM E-score
26 | ATTGGAAA | 0.0719
27 | GCCTAACA | -0.0533
28 | CAATGCAA | 0.0301
29 | GTACCTTA | 0.265
30 | CGGAGACC | 0.0387
31 | CTGACAGA | -0.0473
32 | CTATTAAG | 0.0621
33 | AGCCGCCA | -0.214
34 | TCACGGAA | 0.00369
35 | AAGCATCC | -0.28
36 | CGGGCTCA | -0.323
37 | GTGTTACA | 0.0219
38 | AAACGCTA | -0.106
39 | GACGACAA | 0.0939
40 | AGGCGATA | -0.157
41 | GCCGTAGC | -0.262
42 | CGTCAGAG | -0.0923
43 | GGGCCTAC | -0.213
44 | CACTGGCG | -0.0169
45 | ATGTCCCG | -0.134
46 | GCACCACC | -0.0172
47 | CCTACAAA | 0.163
48 | ACTGTGCT | -0.0927
49 | AGACCCGG | 0.0904
50 | CGGTGAGA | 0.0498

Row | Sequence | PBM E-score
51 | ACCCGAGA | 0.257
52 | CAATACAC | 0.106
53 | CCGAAGTA | 0.0529
54 | AGTTTTAT | 0.191
55 | CGCCATAC | 0.0793
56 | TAGAAGAA | -0.0192
57 | AATCAACT | 0.0271
58 | CAAATAAC | 0.322
59 | AACCATTC | 0.247
60 | ACATCGCC | -0.178
61 | CAATGCCA | -0.006
62 | CGTTCTTA | 0.056
63 | CGACATAG | -0.0859
64 | TGGCATAA | 0.173
65 | TCCTGCAA | -0.00346
66 | CGTACGCA | -0.0893
67 | GGGGCGAC | -0.0536
68 | TGACTGCA | -0.134
69 | CTGGAGAC | -0.0459
70 | AAAAATTG | 0.067
71 | AAAGGACG | 0.0187
72 | TGCATCAA | 0.122
73 | ATATAAAG | 0.149
74 | GGCGCATA | -0.124
75 | ACTGCCTC | -0.215

Row | Sequence | PBM E-score
76 | CAAGACCG | 0.0376
77 | CTCTGAAG | -0.225
78 | CATGAGAC | -0.0938
79 | ATCATCCA | -0.0323
80 | AACCGTCT | 0.0911
81 | TGGCCTAA | -0.155
82 | CACATCGC | -0.148
83 | AAAACGTC | 0.062
84 | AAAGCCAC | 0.00787
85 | AGGCCCGC | -0.216
86 | GATAGTAA | 0.00805
87 | GTCAAAAC | 0.148
88 | TATGTACA | 0.14
89 | CCCACTAG | -0.335
90 | GTGAGCTA | -0.0465
91 | CGTAAGCC | -0.0921
92 | GTAGGTGA | 0.0614
93 | TCAGATGA | 0.0541
94 | AGTAATAG | 0.0318
95 | CTCGACTA | -0.0884
96 | CGATGGCC | 0.0312
97 | AGGGGCCA | 0.183
98 | CAGGGCAC | -0.0382
99 | GCAGTACC | 0.262
100 | GCCACAGC | -0.347

Row | Sequence | PBM E-score
101 | TACACGGA | 0.0784
102 | ATCTGTAG | -0.132
103 | AACTCAAA | 0.138
104 | AAGCGACG | -0.225
105 | TATCTAAA | 0.0386
106 | AAAAAGCC | 0.191
107 | AGATTGTA | -0.0381
108 | GGTTTCGA | 0.165
109 | ATGGGGAG | -0.108
110 | CCGGTAAG | 0.199
111 | GCGCTCTA | -0.0336
112 | TAACGCGA | 0.0696
113 | GATCGCGA | -0.092
114 | TACGGAGA | -0.02
115 | CTGTACAA | -0.0897
116 | TGACGAAA | 0.111
117 | AGCGAGAA | -0.249
118 | ACGTATCG | -0.0607
119 | CGCAGTGC | -0.113
120 | TCAACAGA | 0.128
121 | ACGTGCTC | -0.398
122 | CAGAAGCA | -0.0791
123 | ATACTAAC | 0.0277
124 | ACGGCTCA | -0.171
125 | CCCGGGCG | -0.0361

Row | Sequence | PBM E-score
126 | ACGTACTG | -0.0495
127 | CACGTAGG | -0.0104
128 | CGGAATTC | -0.128
129 | ACCGTGCC | -0.084
130 | CTTATTAC | 0.062
131 | CTGCGAGA | -0.241
132 | ACCTACTG | -0.0042
133 | CGTGCACC | 0.00545
134 | ACTGCTGG | -0.288
135 | GATCACCC | 0.241
136 | ACAATTCA | 0.0233
137 | TCCTGTAA | 0.128
138 | ACACCTGC | -0.0597
139 | ATGTATTC | -0.0708
140 | CTCGGCCA | -0.0669
141 | CTTATAAC | 0.302
142 | ATACAGCG | -0.178
143 | ACGAGTAA | 0.165
144 | GCTCAGTA | 0.0407
145 | AAAGTTTG | 0.0973
146 | CTACCCAC | 0.0326
147 | TATCATGA | 0.202
148 | GACCCGAC | 0.119
149 | CCAAACGG | -0.0146
150 | ACCTTATA | 0.339

Row | Sequence | PBM E-score
151 | ACCTAGAA | 0.17
152 | ATTTATAC | 0.275
153 | AATTGGCC | -0.083
154 | GCCTTCCA | -0.171
155 | CGCAGGTA | 0.164
156 | AGCCGGAC | 0.0181
157 | CGCCCCCC | -0.358
158 | GGGGAGAA | -0.0462
159 | CGTTACTC | 0.126
160 | CCGGTTAA | 0.261
161 | GTAAAGTA | 0.0618
162 | AACCAGAG | 0.191
163 | CAAGTGTC | -0.0245
164 | GCACGACC | 0.122
165 | CCAATGTA | -0.00387
166 | ATTCCCTC | -0.0432
167 | AAGCGGGT | -0.0261
168 | GAACAGAA | -0.0216
169 | CCTTAAGA | 0.155
170 | ATATAGAG | -0.19
171 | CAGAATCG | -0.163
172 | ACCTCCTA | -0.155
